The list shows a part of the results.
Columns and labels:
Assay in all cases: glycan array binding signal (z-score within array); higher = stronger binding
Conditions in all cases: glycan notation: IUPAC condensed, linker removed; mutation: N288D, K313I
[1] = biological target: Gal3S(b1-3)[Fuc(a1-4)]GlcNAc
How it was run: (§1)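 Columns mapping to the same glycan were averaged after glycan names were converted to IUPAC-condensed notation. The data come from 3228 arrays in the Consortium for Functional Glycomics database, limited to those with an available protein sequence. Binding is reported as a within-array Z-score averaged across arrays of one protein sequence and across linkers.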

[2] = biological target: Gal3S(b1-4)Glc
How it was run: as §1

[3] = biological target: Gal3S(b1-4)Glc6S
How it was run: as §1

[4] = biological target: Gal3S(b1-4)GlcNAc
How it was run: as §1

[5] = biological target: Gal3S(b1-4)[Fuc(a1-3)]Glc6S
How it was run: as §1

[6] = biological target: Gal3S(b1-4)[Fuc(a1-3)]GlcNAc
How it was run: as §1

[7] = biological target: Gal3S(b1-4)[Fuc(a1-3)]GlcNAc6S
How it was run: as §1

[8] = biological target: Gal3S4S(b1-4)GlcNAc
How it was run: as §1

[9] = biological target: Gal3S6S(b1-4)GlcNAc
How it was run: as §1

[10] = biological target: Gal3S6S(b1-4)GlcNAc6S
How it was run: as §1

[11] = biological target: Gal4S(b1-4)GlcNAc
How it was run: as §1

[12] = biological target: Gal4S6S(b1-4)GlcNAc
How it was run: as §1

[13] = biological target: Gal6P(b1-4)GlcNAc
How it was run: as §1

[14] = biological target: Gal6S(b1-3)GlcNAc
How it was run: as §1

[15] = biological target: Gal6S(b1-3)GlcNAc6S
How it was run: as §1

[16] = biological target: Gal6S(b1-4)Glc
How it was run: as §1

[17] = biological target: Gal6S(b1-4)Glc6S
How it was run: as §1

[18] = biological target: Gal6S(b1-4)GlcNAc
How it was run: as §1

[19] = biological target: Gal6S(b1-4)GlcNAc6S
How it was run: as §1

[20] = biological target: GalNAc(a1-3)Gal
How it was run: as §1

[21] = biological target: GalNAc(a1-3)GalNAc
How it was run: as §1

[22] = biological target: GalNAc(a1-3)GalNAc(b1-3)Gal(a1-4)Gal(b1-4)Glc
How it was run: as §1

[23] = biological target: GalNAc(a1-3)GalNAc(b1-3)Gal(a1-4)Gal(b1-4)GlcNAc
How it was run: as §1

[24] = biological target: GalNAc(b1-3)Gal
How it was run: as §1

[25] = biological target: GalNAc(b1-3)Gal(a1-4)Gal(b1-4)GlcNAc
How it was run: as §1

[26] = biological target: GalNAc(b1-3)Gal(a1-4)Gal(b1-4)GlcNAc(b1-3)Gal(b1-4)Glc
How it was run: as §1

[27] = biological target: GalNAc(b1-3)Gal(a1-6)Gal(b1-4)Glc
How it was run: as §1

[28] = biological target: GalNAc(b1-3)GalNAc
How it was run: as §1

[29] = biological target: GalNAc(b1-3)GlcNAc
How it was run: as §1

[30] = biological target: GalNAc(b1-4)Gal(b1-4)Glc
How it was run: as §1

[31] = biological target: GalNAc(b1-4)GlcNAc
How it was run: as §1

[32] = biological target: GalNAc(b1-4)GlcNAc(b1-2)Man
How it was run: as §1

[33] = biological target: GalNAc(b1-4)GlcNAc(b1-2)Man(a1-3)[GalNAc(b1-4)GlcNAc(b1-2)Man(a1-6)]Man(b1-4)GlcNAc(b1-4)GlcNAc
How it was run: as §1

[34] = biological target: GalNAc(b1-4)GlcNAc(b1-3)GalNAc(b1-4)GlcNAc
How it was run: as §1

[35] = biological target: GalNAc(b1-4)GlcNAc6S
How it was run: as §1

[36] = biological target: GalNAc(b1-6)GalNAc
How it was run: as §1

[37] = biological target: GalNAc3S(b1-4)GlcNAc
How it was run: as §1

[38] = biological target: GalNAc3S(b1-4)GlcNAc3S
How it was run: as §1

[39] = biological target: GalNAc3S(b1-4)[Fuc(a1-3)]GlcNAc
How it was run: as §1

[40] = biological target: GalNAc4S6S(b1-4)GlcNAc
How it was run: as §1

[41] = biological target: GalNAc6S(b1-4)GlcNAc
How it was run: as §1

[42] = biological target: Glc(a1-4)Glc
How it was run: as §1

[43] = biological target: Glc(a1-4)Glc(a1-4)Glc(a1-4)Glc
How it was run: as §1

[44] = biological target: Glc(a1-6)Glc(a1-6)Glc
How it was run: as §1

[45] = biological target: Glc(a1-6)Glc(a1-6)Glc(a1-6)Glc
How it was run: as §1

B1: Langerin (Homo sapiens), Q9UJ71 (protein)
chain: STLNAQIPELKSDLEKASALNTKIRALQGSLENMSKLLKRQNDILQVVSQGWKYFKGNFYYFSLIPKTWYSAEQFCVSRNSHLTSVTSESEQEFLYKTAGGLIYWIGLTKAGMEGDWSWVDDTPFNKVQSARFWIPGEPNDAGNNEHCGNIKAPSLQAWNDAPCDITFLFICKRPYVPSEP
With B1 the “glycan array binding signal (z-score)” value [1] was -0.219, the “glycan array binding signal (z-score)” value [2] was -0.16 and the “glycan array binding signal (z-score)” value [3] was -0.184. For the same binder, the “glycan array binding signal (z-score)” value [4] was -0.217, the “glycan array binding signal (z-score)” value [5] was 0.149 and the “glycan array binding signal (z-score)” value [6] was -0.313. For the same binder, the “glycan array binding signal (z-score)” value [7] was -0.1, the “glycan array binding signal (z-score)” value [8] was -0.333 and the “glycan array binding signal (z-score)” value [9] was -0.209. The “glycan array binding signal (z-score)” value [10] was -0.143, the “glycan array binding signal (z-score)” value [11] was -0.05 and the “glycan array binding signal (z-score)” value [12] was -0.357. The “glycan array binding signal (z-score)” value [13] was -0.295, the “glycan array binding signal (z-score)” value [14] was -0.139 and the “glycan array binding signal (z-score)” value [15] was -0.22. The “glycan array binding signal (z-score)” value [16] was -0.087, the “glycan array binding signal (z-score)” value [17] was 0.105 and the “glycan array binding signal (z-score)” value [18] was -0.182. For the same binder, the “glycan array binding signal (z-score)” value [19] was -0.328, the “glycan array binding signal (z-score)” value [20] was -0.2 and the “glycan array binding signal (z-score)” value [21] was -0.182. For the same binder, the “glycan array binding signal (z-score)” value [22] was -0.166, the “glycan array binding signal (z-score)” value [23] was -0.3 and the “glycan array binding signal (z-score)” value [24] was -0.289. The “glycan array binding signal (z-score)” value [25] was -0.023, the “glycan array binding signal (z-score)” value [26] was -0.133 and the “glycan array binding signal (z-score)” value [27] was -0.038. The “glycan array binding signal (z-score)” value [28] was 0.143, the “glycan array binding signal (z-score)” value [29] was -0.319 and the “glycan array binding signal (z-score)” value [30] was -0.057. The “glycan array binding signal (z-score)” value [31] was 0.446, the “glycan array binding signal (z-score)” value [32] was -0.178 and the “glycan array binding signal (z-score)” value [33] was -0.176. The “glycan array binding signal (z-score)” value [34] was -0.208, the “glycan array binding signal (z-score)” value [35] was -0.205 and the “glycan array binding signal (z-score)” value [36] was -0.255. For the same binder, the “glycan array binding signal (z-score)” value [37] was -0.312, the “glycan array binding signal (z-score)” value [38] was -0.298 and the “glycan array binding signal (z-score)” value [39] was 0.095. The “glycan array binding signal (z-score)” value [40] was -0.292, the “glycan array binding signal (z-score)” value [41] was -0.222 and the “glycan array binding signal (z-score)” value [42] was -0.294. For the same binder, the “glycan array binding signal (z-score)” value [43] was -0.105, the “glycan array binding signal (z-score)” value [44] was -0.212 and the “glycan array binding signal (z-score)” value [45] was -0.138.
